Measurements published in the supplement of paper PMC9446081.
Hit rate of the full screen: of about 39,000 compounds, about 220 (0.56%) showed activity. Some of the results follow.

test system: Escherichia coli K-12 BW25113; experiment: relative growth (OD600 normalised to plate interquartile mean) (fraction); higher = less growth inhibition, active = 0.2 or less; conditions: 50 µM; LB; incubation time: overnight (16-24 h)
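Further: static incubation at 37 °C against the wild-type strain, values averaged over two biological replicates.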

Structure (SMILES)	relative growth
C1CCc2nnnn2CC1	inactive: 1.1
CN(CC[C@H](N)CC(=O)N[C@H]1C=C[C@@H](n2ccc(N)nc2=O)O[C@@H]1C(=O)O)C(=N)N	inactive: 0.955
C=CCN=C=S	inactive: 0.981
CCNS(=O)(=O)C(F)(F)C(F)(F)C(F)(F)C(F)(F)C(F)(F)C(F)(F)C(F)(F)C(F)(F)F	inactive: 0.972
C[C@@H]1O[C@@H](O[C@@H]2C[C@@H](O)[C@]3(CO)[C@H]4[C@H](O)C[C@]5(C)[C@@H](C6=CC(=O)OC6)CC[C@]5(O)[C@@H]4CC[C@]3(O)C2)[C@H](O)[C@H](O)[C@H]1O	inactive: 0.995
CC1(C)C(O)CC(=O)C2(C)C1CC(=O)C1(C)C2CCC2(C)C(c3ccoc3)OC(=O)C3OC321 (stereo unspecified)	inactive: 1.09
COC1=CC2C3Cc4ccc(OC)c(O)c4C2(CCN3C)CC1=O (stereo unspecified)	inactive: 1.05
Br.CC(Cc1ccc(O)cc1)NCC(O)c1cc(O)cc(O)c1 (stereo unspecified)	inactive: 1.01
CI.O=C(COc1ccc(Cl)cc1Cl)OC[C@H]1CCCN2CCCC[C@@H]12	inactive: 1
COC(=O)[C@]1(Cc2ccccc2N=[N+]=[N-])N=C(c2ccc(OCCCO)cc2)O[C@@H]1c1ccccc1N=[N+]=[N-]	inactive: 1.03
O=C1CC(=O)N(Cc2ccccc2)C(=O)N1	inactive: 0.972
NCC(=O)Nc1ccc(Br)cc1C(=O)c1ccccc1	inactive: 0.997
CS(=O)(=O)c1ccc(C(=O)C2C(=O)CCCC2=O)c([N+](=O)[O-])c1	inactive: 1.07
CN1CCO[C@H]2CN(c3ncccn3)C[C@@H]21	inactive: 1.01
O=C(O)CF.[NaH]	inactive: 0.985
Cc1cccc(CC2(N)CC2)c1	inactive: 1.01
C[N+]1(C)C2CC(OC(=O)C(CO)c3ccccc3)CC1C1OC12.[Br-] (stereo unspecified)	inactive: 1.05
C=C(C)[C@@H]1[C@H]2OC(=O)[C@H]1[C@]1(O)C[C@H]3O[C@]34C(=O)O[C@H]2[C@]14C	inactive: 1.01
O=C1NC(=O)C(=C[C@@H]2CC=CCC2)C(=O)N1	inactive: 1.01
OCC1CCCN2CCCCC12 (stereo unspecified)	inactive: 1.04
Clc1ccc(Cl)cc1	inactive: 1.01
C1CCNCC1	inactive: 1.01
Nc1ccc2c(c1)Cc1ccccc1-2	inactive: 0.969
CCN(CC)C(=O)C1=NO[C@]2(CCNC2)C1	inactive: 0.996

Structure (SMILES)	relative growth
CC(=O)OC1CCC2(C)C(=CCC3C4CCC(=O)C4(C)CCC32)C1 (stereo unspecified)	inactive: 1.07
O=C1COC2(CNC2)CN1	inactive: 0.94
COS(C)(=O)=O	inactive: 1.05
C1CN2CN3CCN(CN1C3)C2	inactive: 0.984
CCn1nnnc1N	inactive: 0.993
OC[C@H]1O[C@@H](Oc2ccc(/C=C/c3cc(O)cc(O)c3)cc2O)[C@H](O)[C@@H](O)[C@@H]1O	inactive: 0.996
CC1=CC(=O)c2c(O)cccc2C1=O	inactive: 0.761
C=C1CC2C(CCC3(C)C(=O)CCC23)C2(C)C=CC(=O)C=C12 (stereo unspecified)	inactive: 0.988
CNCc1cccnc1	inactive: 0.995
C[C@]12CC[C@](C)(O1)[C@H](C(=O)O)[C@@H]2C(=O)O	inactive: 1.01
CC1(C)OCC2(CNC2)CO1	inactive: 0.944
C[C@@H]1CN([C@@H](C)CO)C(=O)c2cc(NC(=O)Nc3ccccc3)ccc2O[C@@H](C)CCCCO[C@H]1CN(C)C(=O)Oc1ccccc1	inactive: 1.02
O=C(NC[C@H]1CCC2(CCNCC2)O1)C1CC1	inactive: 1.04
COc1ccc(CN2CCNCC2)c(OC)c1OC.Cl.Cl	inactive: 0.991
C[C@H]1CN([C@@H](C)CO)C(=O)CCCn2nncc2CO[C@H]1CN(C)C(=O)Oc1cccc2ccccc12	inactive: 1
CCN1C[C@]23CNC[C@@H](C[C@H]2S1(=O)=O)O3	inactive: 1.01
CCCCC(=O)N1C[C@@H]2CCNC[C@@H]21	inactive: 0.951
CC1(C)CCNC1=O	inactive: 1.04
CC(=O)[O][Hg][c]1ccccc1	active: 0.0564
C=C(C)[C@H]1CN[C@H](C(=O)O)[C@H]1CC(=O)O	inactive: 0.978
N#Cc1cccnc1	inactive: 1.01
CN1[C@@H](CO)[C@@H]2c3ccccc3NC[C@@H]21	inactive: 1.01
CC(=O)O[C@H]1C[C@@H]2CC[C@@H]3[C@H](CC[C@@]4(C)[C@H]3C[C@H]([N+]3(C)CCCCC3)[C@@H]4OC(C)=O)[C@@]2(C)C[C@@H]1[N+]1(C)CCCCC1	inactive: 1
O[C@H]1[C@H](O)[C@@H](O)CN2CC[C@H](O)[C@H]12	inactive: 0.994

Structure (SMILES)	relative growth
CCOP(=S)(OCC)SCSP(=S)(OCC)OCC	inactive: 1.02
C[C@@H]1CN([C@H](C)CO)C(=O)CCCn2nncc2CO[C@H]1CN(C)C(=O)Oc1ccc2ccccc2c1	inactive: 1.02
CC(C)(C)C(O)(CCc1ccc(Cl)cc1)Cn1cncn1 (stereo unspecified)	inactive: 1.05
c1cnc(N2CCOC[C@@]3(CCCNC3)C2)cn1	inactive: 1
CC=Cc1ccc2c(c1)OCO2	inactive: 0.883
Nc1nc(N)nc(NC2CC2)n1	inactive: 0.895
Cc1ccc(-c2nc3ccc(C)cn3c2CC(=O)N(C)C)cc1	inactive: 0.836
N#CCCN1CCCC2(CCCC2)C1	inactive: 0.99
Cl.NCCc1ccccc1	inactive: 0.983
C[C@@H]1CN([C@H](C)CO)C(=O)c2c(c3ccccc3n2C)-c2ccccc2CO[C@H]1CN(C)C(=O)Oc1ccccc1	inactive: 1.01
CN1C[C@H]2CN[C@H]2C1	inactive: 1.04
O=[N+]([O-])c1ccc(N(CCO)CCO)c2c1no[n+]2[O-]	active: 0.0367
CO[C@H]1[C@@H](O)[C@@H](O[C@H]2CC[C@]3(C=O)[C@@H]4[C@@H](CC[C@]3(O)C2)[C@@]2(O)CC[C@H](C3=CC(=O)OC3)[C@@]2(C)C[C@H]4OC(C)=O)O[C@@H](C)[C@@H]1OC(C)=O	inactive: 1
COc1ccc(Cc2nccc3cc(OC)c(OC)cc23)cc1OC.Cl	inactive: 0.959
O=C(O)C(Cl)Cl.[NaH]	inactive: 0.879
C[N+]1([O-])C2CCC1CC(OC(=O)C(CO)c1ccccc1)C2 (stereo unspecified)	inactive: 0.951
C=C(C)[C@@H]1CCC(C)=C[C@H]1c1c(O)cc(CCCCC)cc1O	inactive: 1.01
C[C@H]1O[C@H](O[C@H]2[C@H](O)[C@@H](O)[C@@H](O)[C@H](O)[C@@H]2O)[C@@H](N)C[C@@H]1NC(=N)C(=O)O	inactive: 0.504
CC(C)Oc1ccc(CCN)cc1	inactive: 1
C[C@@H]1CN([C@H](C)CO)C(=O)CCCn2nncc2CO[C@@H]1CN(C)C(=O)Oc1ccc2ccccc2c1	inactive: 0.998
C#CC1(O)CCC2C3CCC4=CC(=O)CCC4(C)C3CCC21C (stereo unspecified)	inactive: 1.06
O=C1[O][SbH]23[O]C(=O)[C@H]([O]2)[C@H]2[O][SbH]4([O]C(=O)[C@H]([O]4)[C@H]1[O]3)[O]C2=O	inactive: 0.313
N[C@@H](Cc1ccc(O)cc1)C(=O)NCC(=O)NCC(=O)O	inactive: 0.969
COCCC(=O)N1C[C@H]2CCN[C@H]2C1	inactive: 0.987

Structure (SMILES)	relative growth
CC(=O)NCCSS(C)(=O)=O.CN(C)c1ccc2c(-c3ccccc3C(=O)O)c3ccc(N(C)C)cc3[o+]c2c1	inactive: 1.03
O=C1NC2(CCNCC2)C[C@@H]1c1ccncc1	inactive: 0.994
Cc1cc(O)ccc1Cl	inactive: 0.754
C[C@H](N)Cc1cnc[nH]1	inactive: 1.02
CCCC(C)C1(CC)C(=O)N=C([S-])NC1=O.[Na+] (stereo unspecified)	inactive: 0.853
Cc1o[nH]c(=O)c1C[C@@H](N)C(=O)O	inactive: 1
COc1ccc(N(C(=O)Oc2c(C)cccc2C)c2ccnc(Nc3ccc(N4CCN(C)CC4)cc3)n2)c(OC)c1	inactive: 1.02
C[C@@H]1CN([C@H](C)CO)C(=O)CCCn2nncc2CO[C@H]1CN(C)C(=O)Oc1cccc2ccccc12	inactive: 1.01
CC(=O)OC1C(=O)C2(C)C(O)CC3OCC3(OC(C)=O)C2C(OC(=O)c2ccccc2)C2(O)CC(O)C(C)=C1C2(C)C (stereo unspecified)	inactive: 1.01
Nc1nc(Cl)ncc1[N+](=O)[O-]	inactive: 0.988
O=C(OC1CC2CCC(C1)[N+]21CCCC1)C(O)(c1ccccc1)c1ccccc1.[Cl-] (stereo unspecified)	inactive: 1.02
NNc1ccn([C@H]2O[C@@H](CO)[C@@H](O)[C@@H]2O)c(=O)n1	inactive: 0.394
O=C(O)Cc1cnc[nH]1	inactive: 0.999
CC(C)c1ccc2[nH]c(=O)c(CCN)cc2c1	inactive: 0.97
NC(=O)CN1C[C@@H](O)CC1=O	inactive: 0.999
COc1ccc(C2(CN)CCCC2)cc1	inactive: 1.02
C[C@@H](N)Cc1ccc2occc2c1	inactive: 1.04
CC(=C1C(=O)NC(=O)NC1=O)c1ccc(N)cc1	inactive: 1.01
CC12CCC3c4ccc(OC(=O)N(CCCl)CCCl)cc4CCC3C1CCC2O (stereo unspecified)	inactive: 0.992
N=C(N)NO	inactive: 1.02
COc1cccc2c1C(=O)c1c(O)c3c(c(O)c1C2=O)C[C@@](O)(C(=O)CO)C[C@@H]3O[C@H]1C[C@H](N2CCO[C@H](OC)C2)[C@H](O)[C@H](C)O1	inactive: 0.933
CO[C@@H]1C=C[C@@H]2[C@H]1N2CCO (stereo partly specified)	inactive: 0.968
COC(=O)[C@H]1[C@H](CO)[C@H]2Cn3c(cccc3=O)[C@@H]1N2C(=O)C1CC1	inactive: 1.02
C/C=C(/C)C(=O)O[C@H]1CC[C@@]2(C)[C@@H]3CC[C@H]4[C@]5(O)C[C@H](O)[C@@]6(O)[C@@H](CN7C[C@@H](C)CC[C@H]7[C@@]6(C)O)[C@]5(O)C[C@@]42O[C@@]13O	inactive: 1.01
